# Laboratory results: PMC4336329 (PLoS ONE, 2015)
# In all, about 310,000 compounds went through this assay and about 2,200 (0.71%) showed an effect of 50% or more. The effect is printed as a negative number. This is one part of the list.
# Biological target: human ether-à-go-go-related gene (hERG) potassium channel (human, UniProt Q12809)
# Test: primary screen, population patch clamp on CHO cells stably expressing hERG
# human ether-à-go-go-related gene (hERG) potassium channel, sequence (Q12809 whole entry, looked up): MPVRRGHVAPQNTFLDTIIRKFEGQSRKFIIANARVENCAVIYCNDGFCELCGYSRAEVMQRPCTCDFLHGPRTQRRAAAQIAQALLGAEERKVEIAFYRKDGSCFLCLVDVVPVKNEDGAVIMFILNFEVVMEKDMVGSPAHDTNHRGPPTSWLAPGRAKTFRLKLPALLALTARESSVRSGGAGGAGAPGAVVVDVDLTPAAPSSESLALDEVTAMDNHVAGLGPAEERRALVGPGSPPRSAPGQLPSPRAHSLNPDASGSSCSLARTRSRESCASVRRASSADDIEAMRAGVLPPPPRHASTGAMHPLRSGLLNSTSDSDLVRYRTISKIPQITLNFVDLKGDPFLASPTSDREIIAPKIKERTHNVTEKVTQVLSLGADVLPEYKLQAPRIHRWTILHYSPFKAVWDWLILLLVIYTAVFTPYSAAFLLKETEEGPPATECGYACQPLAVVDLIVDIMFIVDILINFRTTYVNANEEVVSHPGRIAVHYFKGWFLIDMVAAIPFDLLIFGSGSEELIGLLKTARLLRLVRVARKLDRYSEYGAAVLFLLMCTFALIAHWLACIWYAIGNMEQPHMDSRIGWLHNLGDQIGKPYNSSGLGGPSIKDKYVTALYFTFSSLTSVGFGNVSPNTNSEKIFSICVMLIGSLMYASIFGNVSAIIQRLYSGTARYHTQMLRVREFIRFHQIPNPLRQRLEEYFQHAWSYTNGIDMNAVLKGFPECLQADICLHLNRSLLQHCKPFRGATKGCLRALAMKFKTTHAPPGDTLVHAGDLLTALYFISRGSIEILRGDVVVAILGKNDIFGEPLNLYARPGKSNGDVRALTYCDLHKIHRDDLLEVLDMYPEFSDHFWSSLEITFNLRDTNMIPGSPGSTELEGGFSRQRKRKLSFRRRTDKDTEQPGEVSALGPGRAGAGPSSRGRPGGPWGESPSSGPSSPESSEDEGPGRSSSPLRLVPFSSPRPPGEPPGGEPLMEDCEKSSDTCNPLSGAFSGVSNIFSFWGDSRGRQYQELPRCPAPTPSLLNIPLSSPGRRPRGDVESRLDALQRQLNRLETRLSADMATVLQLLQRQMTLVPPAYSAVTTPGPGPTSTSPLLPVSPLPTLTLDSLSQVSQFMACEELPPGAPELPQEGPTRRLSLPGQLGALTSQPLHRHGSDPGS
row,Compound,"hERG current change (%, negative = inhibition) at 1uM [%]"
1,COc1ccc(Cn2nnnc2C(CC(C)C)N2CCC(C(N)=O)CC2)cc1 (centres unmarked),4.16
2,O=[N+]([O-])c1ncc(Br)cc1Nc1ccccc1,16.5
3,CN1CCN(C(=S)c2ccc(-c3cc(Cl)ccc3Cl)o2)CC1,3.09
4,CCC(=O)Nc1ccc(C2C(=O)c3ccccc3C2=O)cc1,5.37
5,Cc1cccc(NC(=O)CSc2nc3nc4c(cc3c(=O)n2-c2ccccc2)CCCC4)c1,8.42
6,CC(=O)c1ccc(NC(=O)N2C[C@H]3C[C@@H](C2)c2cccc(=O)n2C3)cc1,2.86
7,CCOc1cc(/C=N/O)ccc1OCC(=O)Nc1cccc(C)c1,14.7
8,CCNC(=S)Nc1ccc(S(=O)(=O)Nc2cc(C)nc(C)n2)cc1,13.9
9,Cc1cc(C(=O)COC(=O)c2csc3c2CCCC3)c(C)n1C,14.2
10,COC(=O)c1ccc(CN2CCC(CO)(Cc3ccc(OC)cc3)CC2)cc1,-35.1
11,CCOC(=O)C1CCN(C(=S)Nc2cc(OC)c(OC)cc2C(=O)OC)CC1,-9.76
12,O=C(CSc1ccccc1)N1CCN(S(=O)(=O)c2ccccc2F)CC1,5.46
13,O=C(c1cccc(S(=O)(=O)NCc2ccccc2)c1)N1CCN(c2ccc(F)cc2)CC1,-41.7
14,CCCC(=O)N(CCN1CCOCC1)c1nc2c(OC)ccc(OC)c2s1.Cl,-2.71
15,CC(=O)Nc1ccc(S(=O)(=O)Nc2nc3ccc([N+](=O)[O-])cc3s2)cc1,15.7
16,N#Cc1ccc(NC(=O)COC(=O)CNC(=O)C2CCCCC2)cc1,2.65
17,COCCNC(=O)C(c1ccc(C)cc1)N(C(=O)C(=O)NC1CCCC1)c1ccc2c(c1)OCCO2 (centres unmarked),10.9
18,CN(C)S(=O)(=O)c1cccc(COC(=O)c2cnccn2)c1,11.7
19,CCOc1ccc(Cl)cc1CSc1ncn[nH]1,6.7
20,COc1cccc(CNc2ccc(Br)cn2)c1O,6.11
21,O=C(NCc1ccccc1Cl)C(=O)c1c[nH]c2ccccc12,3.01
22,CC(=O)Nc1ccc(N(C(=O)c2ccco2)C(C(=O)NC2CCCC2)c2ccc(N(C)C)cc2)cc1 (centres unmarked),4.66
23,CCCCC(OC(=O)c1cc2occc2n1C)C(=O)NCC1CCCO1 (centres unmarked),-1.76

row,Compound,"hERG current change (%, negative = inhibition) at 1uM [%]"
1,O=C(CSCc1ccc(F)cc1)Nc1ccc(N2CCOCC2)cc1N1CCOCC1,-14.6
2,CS(=O)(=O)N(CC(=O)NCc1ccc(Cl)cc1)C1CCCCC1,1.26
3,COc1ccccc1N1CCN(CC(=O)Nc2ccc(S(=O)(=O)N3CCCCCC3)cc2)CC1,-4.52
4,Nc1nc(NC(=O)/C=C/c2ccccc2)nn1-c1ccccc1,1.83
5,O=C(CSc1nc(-c2ccco2)cc(C(F)(F)F)n1)Nc1ccc(C(=O)N2CCOCC2)cc1,-0.708
6,CC(Cc1cccs1)NC(=S)Nc1ccc(Cl)c(Cl)c1 (centres unmarked),6.68
7,CCOC(=O)c1cccc(NC(=O)CCn2c(=O)oc3ccccc32)c1,2.04
8,Cc1ccc(C)c(N(C(=O)c2snc(C(N)=O)c2N)C(C(=O)NCC2CCCO2)c2cccs2)c1 (centres unmarked),4.75
9,CCOc1ccc(CC(C(N)=O)C(N)=O)cc1CN(C)C,10.9
10,CC(=O)c1cc(C#N)c(NCc2cc(-c3ccccc3)no2)nc1C,4.29
11,CC(C)c1ccc(NC2=CC(=O)CC(C)(C)C2)cc1,13.2
12,Cc1ccc(C2C(=O)N(C3CCC(C)CC3)CC(=O)N2C2CCCC2)cc1 (centres unmarked),-13.1
13,CCOC(=O)c1c(C)[nH]c(C)c1S(=O)(=O)N1CCN(c2ccc(F)cc2)CC1,-4.36
14,C[C@@]12C(=O)N(CC3CCCO3)CC(=O)N1[C@H]1c3ccccc3OC[C@@H]1[C@@H]2c1ccccc1 (some centres unmarked),9.67
15,O=C(NC(NNc1ccc([N+](=O)[O-])cc1)(C(F)(F)F)C(F)(F)F)c1ccc(F)cc1,7.02
16,O=C(/C=C/c1ccccc1)OCc1cncs1,12.6
17,CC1CN(S(=O)(=O)c2ccc(CN3C(=O)c4cccnc4C3=O)s2)c2ccccc2O1 (centres unmarked),0.571
18,N=C1C(c2ccccc2)=C(O)CN1NC(=O)c1ccccc1,10.8
19,CNC(=S)NCC(O)c1ccc([N+](=O)[O-])cc1 (centres unmarked),5.44
20,O=C(NN=C1CCCCCCC1)c1ccccn1,6.72
21,COc1ccc(OCCCC(=O)NCCc2ccc(OC)c(OC)c2)cc1,17.3
22,CC(NC(=O)Nc1cccc(Cl)c1)C(c1cccs1)N1CCCC1 (centres unmarked),-2.04
23,NC(=O)c1ccsc1NC(=O)COC(=O)c1c(F)cccc1Cl,7.49

row,Compound,"hERG current change (%, negative = inhibition) at 1uM [%]"
1,CCOC(=O)N1CCN(C(=S)Nc2ccc(C)cc2C)CC1,0.56
2,O=C(CSc1ccc(-c2ccco2)nn1)NCc1ccccc1,2.16
3,CCN(CC)S(=O)(=O)c1ccc(NC(=O)CNC2CCCCC2)cc1.O=C(O)C(=O)O,12.2
4,Cc1ccc(C(=O)NCC2CCCN2S(=O)(=O)c2cccs2)cc1C (centres unmarked),16.9
5,O=C(Nc1ccc(CSc2ccccc2)cc1)c1ccc(CN2CCOCC2)cc1,7.08
6,COC(=O)c1ccc(CSc2nc(C)nc3c2c(=O)n(C)c(=O)n3C)o1,16
7,CC(C)CCn1c(SC(C)C(=O)NC2CC2)nc2ccccc2c1=O (centres unmarked),15.1
8,CCn1cc(CN2CCCC(C(=O)Nc3ccc(-c4cscn4)cc3)C2)c(C)n1 (centres unmarked),16.1
9,COc1ccc2c(c1)c(=O)oc1c(C)c(OC(C)C(=O)NCC3CCC(C(=O)O)CC3)ccc12 (centres unmarked),17
10,COc1ccc(-c2noc(-c3ccccc3C(=O)N3CCOCC3)n2)cc1,-5.83
11,Cn1c(-c2ccccc2F)cc2onc(-c3ccccc3)c2c1=O,1.78
12,O=C(NC(=S)NCC1COc2ccccc2O1)c1ccccc1 (centres unmarked),10.2
13,COCCn1c(SCC(=O)NCc2ccc(OC)c(OC)c2)nc2ccccc21,14.2
14,Cc1ccc(C(=O)N2C(=O)c3cccc(N)c3C2=O)o1,1.2
15,COC(=O)CCCC(=O)N1CCC(CCC(=O)NCc2ccc(F)cc2)CC1,4
16,NNC(=O)CN1C(=O)Nc2ccc(Br)cc2C1c1ccccc1 (centres unmarked),9.17
17,CCOC(=O)N1CCN(Cc2oc(CO)cc(=O)c2O)CC1,8.48
18,CCn1ncc([N+](=O)[O-])c1C(=O)Nc1nc2cccc(C)c2s1,13.4
19,O=c1cc([O-])n(C2CCCCCC2)c(=O)[nH]1.[NH4+],11.6
20,COc1ccc(N2CCN(Cc3nc4ccccc4[nH]3)CC2)cc1,11.1
21,CC1(C(=O)O)CCC(C(=O)N2CCOCC2)C1(C)C (centres unmarked),7.78
22,COc1cccc(CC2(CO)CCN(Cc3ccc4cccc(F)c4n3)CC2)c1,-4.61
23,COC(=O)c1[nH]c2ccccc2c1NC(=O)CN1CCCCCC1,-3.6

row,Compound,"hERG current change (%, negative = inhibition) at 1uM [%]"
1,COc1ccccc1N1CCN(C2CCN(C(=O)COc3ccccc3)CC2)CC1,0.692
2,CCOC(=O)c1nn(-c2ccc(C)cc2)c(=O)cc1OCC(=O)Nc1ccc(OC)cc1,13.5
3,Cc1ccc(NC(=O)CC(=O)Nc2ccc(C)cc2)cc1,15.6
4,CCCCCCCCCCCCC(=O)CCCCC(=O)O,-6.15
5,CC(C)(C)OC(=O)N/N=C\c1ccc([N+](=O)[O-])s1,9.29
6,O=C(O)CCSc1ccc2ccccc2n1,3.83
7,CCc1nnc(NC(=O)c2cccs2)s1,14.2
8,CCOCCCNC(=O)CNC(=S)N(Cc1ccccc1F)C1CCCCC1,-6.79
9,COc1ccc(OC)c(NC(=O)Cc2nn(C)c(=O)c3ccccc23)c1,10.7
10,COC(=O)CSCC(=O)Nc1cc2c(cc1C(C)=O)OCO2,9.01
11,COc1ccc2[nH]c(=O)c(COC(=O)c3cccs3)cc2c1,-1.61
12,COC(=O)c1c(NC(=O)CN(C)CC(=O)Nc2ccc(C)cc2)sc2c1CCC(C)C2 (centres unmarked),-14.1
13,O=C1CC(c2ccccc2)CN1S(=O)(=O)c1ccccc1 (centres unmarked),5.77
14,COC(=O)/C=C1/C(=O)N/C(=N\c2nc(C)cc(C)n2)N1c1ccc(OC)cc1,12.5
15,COc1ccccc1CC(=O)NC(=O)c1ccccc1O,29.7
16,Cc1ccc2nsnc2c1S(=O)(=O)N1CCN(C(=O)C2CCCO2)CC1 (centres unmarked),0.95
17,O=C(NCc1ccccc1Cl)c1ccc(NC2=NC3CS(=O)(=O)CC3S2)cc1 (centres unmarked),1.4
18,CCOc1cccc(C(=O)Nc2ccc(NC(=O)c3cc4ccccc4o3)c(OC)c2)c1,18.5
19,Cc1cc(C)c(OCC(=O)Nc2cccc(NC(=O)c3ccco3)c2)c(Br)c1,11.7
20,N#Cc1cc(C(=O)c2cc(Cl)ccc2O)cn(-c2ccccc2)c1=O,6.09
